These are yes or no findings as the source states them, for the method shown. Binding seen in cells or lysates may run through a third protein. Where a sequence is shown, tags or fusion partners need not be part of it.
Target: T1, HA-DHX29 (full-length, FL-DHX29) (human) (UniProt Q7Z478)
T1 sequence: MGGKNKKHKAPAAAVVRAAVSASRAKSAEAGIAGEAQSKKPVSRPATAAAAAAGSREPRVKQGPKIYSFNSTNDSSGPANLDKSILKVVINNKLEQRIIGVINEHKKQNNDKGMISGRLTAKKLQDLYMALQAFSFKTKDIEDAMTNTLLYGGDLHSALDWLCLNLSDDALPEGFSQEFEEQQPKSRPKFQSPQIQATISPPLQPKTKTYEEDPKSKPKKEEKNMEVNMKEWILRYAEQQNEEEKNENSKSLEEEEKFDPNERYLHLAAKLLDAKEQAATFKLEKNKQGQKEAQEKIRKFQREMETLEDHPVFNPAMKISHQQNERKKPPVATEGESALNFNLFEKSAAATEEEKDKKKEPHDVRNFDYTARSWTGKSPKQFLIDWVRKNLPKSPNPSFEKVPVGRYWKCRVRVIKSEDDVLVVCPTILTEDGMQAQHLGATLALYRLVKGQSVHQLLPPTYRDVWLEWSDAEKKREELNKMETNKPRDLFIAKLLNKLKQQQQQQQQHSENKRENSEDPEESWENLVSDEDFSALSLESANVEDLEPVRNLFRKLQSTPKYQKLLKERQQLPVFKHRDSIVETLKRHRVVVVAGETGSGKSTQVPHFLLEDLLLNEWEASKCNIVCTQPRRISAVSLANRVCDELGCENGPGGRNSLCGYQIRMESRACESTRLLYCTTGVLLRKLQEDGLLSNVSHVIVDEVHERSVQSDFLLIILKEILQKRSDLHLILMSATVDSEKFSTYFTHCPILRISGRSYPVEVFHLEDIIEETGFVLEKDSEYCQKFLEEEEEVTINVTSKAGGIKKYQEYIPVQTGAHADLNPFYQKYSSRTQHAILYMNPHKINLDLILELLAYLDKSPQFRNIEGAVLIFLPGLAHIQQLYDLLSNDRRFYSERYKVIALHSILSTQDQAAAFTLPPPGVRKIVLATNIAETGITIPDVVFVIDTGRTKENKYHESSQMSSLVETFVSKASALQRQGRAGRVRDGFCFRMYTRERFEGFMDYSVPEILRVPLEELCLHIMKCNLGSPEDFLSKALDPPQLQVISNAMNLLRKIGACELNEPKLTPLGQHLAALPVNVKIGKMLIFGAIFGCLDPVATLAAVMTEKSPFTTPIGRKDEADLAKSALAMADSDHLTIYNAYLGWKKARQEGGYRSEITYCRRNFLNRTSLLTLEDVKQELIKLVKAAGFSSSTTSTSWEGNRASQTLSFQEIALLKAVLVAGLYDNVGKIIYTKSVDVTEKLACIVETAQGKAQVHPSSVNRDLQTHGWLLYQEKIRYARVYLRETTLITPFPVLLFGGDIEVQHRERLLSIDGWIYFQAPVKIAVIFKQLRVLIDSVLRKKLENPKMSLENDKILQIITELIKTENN
Test: co-IP; 293T cells cotransfected; whole cell lysates immunoprecipitated with anti-HA beads, immunoblotted with anti-Flag (Fig 5A, Fig 6A); also in RIG-I knockout 293T cells (S5D Fig)

Amino acid sequences for entries named in this document (tags omitted).
UniProt Q7Z434: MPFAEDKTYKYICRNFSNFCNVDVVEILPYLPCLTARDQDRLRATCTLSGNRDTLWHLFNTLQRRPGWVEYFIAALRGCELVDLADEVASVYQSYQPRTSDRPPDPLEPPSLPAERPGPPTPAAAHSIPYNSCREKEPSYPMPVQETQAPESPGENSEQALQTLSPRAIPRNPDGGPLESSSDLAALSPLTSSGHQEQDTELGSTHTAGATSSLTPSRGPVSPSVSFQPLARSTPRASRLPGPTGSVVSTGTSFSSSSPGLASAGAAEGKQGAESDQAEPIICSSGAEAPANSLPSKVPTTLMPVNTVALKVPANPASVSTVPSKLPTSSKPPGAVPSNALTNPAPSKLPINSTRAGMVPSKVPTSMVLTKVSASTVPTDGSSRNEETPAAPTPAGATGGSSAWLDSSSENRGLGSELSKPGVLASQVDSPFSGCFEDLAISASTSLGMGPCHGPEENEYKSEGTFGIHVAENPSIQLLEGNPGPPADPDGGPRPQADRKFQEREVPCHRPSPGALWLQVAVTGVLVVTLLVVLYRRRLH

- binding: no binding
Substance: Flag-MAVS (from UniProt Q7Z434 1-540)

From publication PMC5834211
